# PMC10668032
# The list shows a part of the results. At the low end of the ranking the order means little.
# Biological target: SIX1-Q177R homeodomain (UniProt Q15475)
# Assay: universal protein binding microarray
# Settings: Universal all-10-mer PBM (8x60K, AMADID 030236), 300 nM GST-tagged protein, Alexa Fluor 488 anti-GST; buffer, salt, pH and temperature not stated; high values mean tight binding; most listed sequences are background and not binding sites; double strand, one strand shown
row,Sequence,binding signal [E-score]
1,CATGCCGA,-0.241
2,AACTCTTA,0.0611
3,CCTCTATC,0.103
4,GCGCTGAC,-0.189
5,TAATCGAA,-0.0754
6,AAGTATGT,-0.117
7,CGGAGGCC,-0.128
8,CCGCCTTC,-0.182
9,CCGGCTCG,-0.0238
10,CTTGAGTA,-0.06
11,GACATCTA,-0.2
12,AGCGCCTG,-0.024
13,ATAACACC,0.479
14,GGACGCAC,-0.0442
15,ACACAGTA,0.149
16,CACCTTAG,0.286
17,GCAACCGC,-0.0295
18,AATACACA,0.188
19,TAACAGCA,-0.134
20,ACCGATTC,-0.0142
21,ACTGAACT,-0.0396
22,AAAGTAAA,-0.0908

row,Sequence,binding signal [E-score]
1,GCCCACCA,-0.0101
2,CATTGATA,0.0545
3,CTTGCCTA,-0.334
4,GACCAGGC,-0.048
5,GGTCTAAC,-0.123
6,ACAAGTTG,0.0381
7,CATCTGAC,0.236
8,AGGGGCTC,-0.0099
9,ATAATCAC,0.0171
10,ACCTGGTC,0.0739
11,TGATCGCA,-0.122
12,AGTTACAT,-0.177
13,ATACTCTC,0.158
14,AAGACTTG,-0.178
15,ACTGGGCA,-0.116
16,AAGTCAGC,-0.329
17,GAGCCGAA,-0.284
18,CCTACAGC,-0.146
19,CTTGACTA,-0.197
20,CAGTCCTC,-0.267
21,CGATTCGC,-0.0551
22,TCATGCCA,-0.23

row,Sequence,binding signal [E-score]
1,CTAGTAGA,-0.211
2,GATTTGCC,-0.183
3,TAGACATA,-0.128
4,GAATTTAC,-0.148
5,ATTTGCAG,-0.118
6,ATTTACGC,-0.0258
7,CGCGTCGA,0.0185
8,CAGAACAC,0.381
9,AAAATAAC,0.0114
10,AAAGATTC,-0.0918
11,AGATCCCA,0.0702
12,GTGAATCA,-0.01
13,ACTTCAAG,0.14
14,ACTACTCA,-0.11
15,ATGGGAAA,-0.136
16,ACAGGGAC,-0.17
17,AATATGTC,-0.0328
18,ACATGAAG,-0.139
19,ACTGATTC,0.0282
20,ACATGAGA,0.0216
21,CGTTTTTC,0.0383
22,CCCGTAAC,-0.00184

row,Sequence,binding signal [E-score]
1,GAAACAGA,-0.357
2,CACAGCGC,-0.0668
3,CGTCCCAG,0.0023
4,GCATTAGA,-0.227
5,AAGCTTGG,-0.332
6,GCCGTCAA,-0.181
7,AAATTGTG,0.0835
8,CAAAGACC,-0.265
9,AGACCCCT,0.155
10,ATATGCAG,0.00738
11,AAGTATAT,-0.184
12,GACTTCCC,-0.245
13,GCCTAGCA,-0.157
14,AGCGTTTA,-0.138
15,AATCCCTC,-0.0887
16,CCGCAATC,-0.156
17,AGGGCTGC,-0.174
18,ATCATGAC,0.0301
19,CCAGAGAC,-0.0693
20,ACGGTTCT,-0.106
